Results as given in PubChem BioAssay AID588855 (National Center for Advancing Translational Sciences (NCATS), 2011).
Screen size: about 410,000 compounds; about 5,000 (1.2%) were called active. Inconclusive means that the source gave no clear call. Such entries were picked first, then a sample of the others. Calls follow the shape of the dose curve; as a rule, active = well fitted inhibition curve with a large enough effect; inconclusive = small, poorly fitted or top-dose-only effect; inactive = no such curve, though single readings can be large or run the other way. Potencies beside an inconclusive call are fits to weak or partial responses and may not hold up.

assay: qHTS for Inhibitors of TGF-b; conditions: HepG2 CAGA-GFP TGF-b/SMAD3 reporter, GFP fluorescence, 18 h, TGF-beta stimulated, 500 pg/mL final; series mostly up to 46.1 µM; also: nearly all actives have a fitted effect of over 65% in size
Summary of the method: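 Per well, imaged GFP fluorescence of HEPG2 CAGA-GFP cells gives the signal; cells get compound, then TGF-beta (500 pg/mL final), 18 h at 37 degrees C; %Activity versus -TGF-beta and +DMSO controls.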
Potency is read from the fitted curve at half-maximal effect; tags tell the direction and shape of the fitted curve.

SMILES	Potency
O=C(c1cccc(C(F)(F)F)c1)N1CCc2c([nH]c3ccccc23)C1C(F)(F)F (stereo unspecified)	inconclusive: 25.1 µM [inhibitor, single point]
Cc1ccc(NC(=O)C2CCN(S(=O)(=O)c3ccc4c(c3)NC(=O)C(C)S4)CC2)c(C)c1 (stereo unspecified)	inconclusive: 22.4 µM [inhibitor, single point]
Cc1cccc(C(=O)N2CCC(N3CCN(Cc4ccc(F)cc4)C(=O)C3=O)CC2)c1	inconclusive: 35.5 µM [inhibitor, single point]
Cc1cc(C)cc(NC(=S)NC(=O)Cc2ccccc2)c1	inconclusive: 35.5 µM [inhibitor, single point]
Cc1ccc([N+](=O)[O-])cc1NC(=O)Cc1ccc(F)cc1	inactive
COc1cc(CC(=O)OCC(=O)N2C(C)CCCC2C)cc(OC)c1OC (stereo unspecified)	inactive
CCOc1ccc(OCC)c(NC(=O)c2ccc(CNc3c(N4CCOCC4)c(=O)c3=O)cc2)c1	inconclusive: 0.282 µM [inhibitor, full curve, poor fit]
O=C(CSc1nc(=O)n(CCN2CCOCC2)c2c1CCC2)Nc1cccc(Cl)c1	inactive
O=C(COC(=O)/C=C/c1ccc2c(c1)OCO2)NCc1ccc(F)cc1	inactive
CCOC(=O)C1=C(C)N(c2ccc(C)cc2)C(=O)/C1=C\c1ccc(O)c(OC)c1	inconclusive: 35.5 µM [inhibitor, single point]
Cc1cccc(CC(=O)NC2CC(=O)N(c3ccccc3)C2)c1 (stereo unspecified)	inactive
Cc1ccc(-c2csc(NC(=O)C3=COCCO3)n2)cc1	inactive
CN(C)C=Nc1ccc2nc3c(cc2c1)[nH]c1ccccc13	inconclusive: 35.5 µM [inhibitor, single point]
CCc1ccc2oc(-c3ccc(OC)cc3)cc(=Nc3cccc(C(=O)O)c3)c2c1	inactive
CCOC(=O)C1=C(c2ccccc2)NC(SCC(=O)NC2CCCCC2)=C(C#N)C1c1ccco1 (stereo unspecified)	inconclusive: 7.08 µM [inhibitor, partial curve]
NC(=O)CC(NC(=O)c1cccc(Br)c1)c1ccc(N2CCC(Br)CC2)c([N+](=O)[O-])c1 (stereo unspecified)	inconclusive: 0.282 µM [inhibitor, full curve, poor fit]
CCc1cc2c3c(c1)C1(C(=O)N3C(C)(C)CC2C)C(C#N)=C(N)N2C(=C1C#N)Nc1ccccc12 (stereo unspecified)	inconclusive: 25.1 µM [inhibitor, single point]
Cc1cccc(N(C)c2cc(C)nc3nc(C)nn23)c1	inconclusive: 6.31 µM [inhibitor, single point]
Cc1c(C)n(Cc2ccccc2)c2ncnc(N)c12	inactive
O=C(N/N=C\c1ccccn1)c1ccccc1O	inconclusive: 12.6 µM [inhibitor, partial curve, poor fit]
CCCCCC(=O)Nc1ccc(S(=O)(=O)Nc2nccnc2OC)cc1	inconclusive: 15.8 µM [inhibitor, single point]
COC(=O)C1=C(C)C(c2ccc(OC)cc2)NC(=S)N1 (stereo unspecified)	inactive

SMILES	Potency
O=C(Oc1c(Cl)cc(Cl)c2cccnc12)c1cccc([N+](=O)[O-])c1	inconclusive: 2.51 µM [inhibitor, single point]
CC(C)(C)OC(=O)NCc1ccc(CNC(=O)c2ncn(Cc3ccccc3)c2C(=O)NCc2ccc(CNC(=O)OC(C)(C)C)cc2)cc1	inconclusive: 0.158 µM [inhibitor, full curve, poor fit]
CCOc1cccc(/C=N/NC(=O)c2ccc3c(c2)OCCO3)c1O	inconclusive: 4.47 µM [inhibitor, partial curve, poor fit]
Cc1ccc(Cl)cc1N1CCN(C(=O)c2ccc(CS(=O)(=O)c3ccc(Br)cc3)o2)CC1	inconclusive: 5.01 µM [inhibitor, full curve, poor fit]
C(#Cc1ccccc1)C[N+]1(CC#Cc2cccc3ccccc23)CCOCC1	inactive
Cc1ccc(C(=O)Nc2nc(=O)n(C(=O)c3ccccc3Cl)s2)cc1	inconclusive: 35.5 µM [inhibitor, single point]
Fc1cc(F)c2nc(Nc3nc4cc5c(cc4s3)OCO5)sc2c1	inconclusive: 35.5 µM [inhibitor, single point]
COCCn1c(SCC(=O)Nc2cccc(C)c2C)nc2c(oc3ccccc32)c1=O	inconclusive: 0.112 µM [inhibitor, full curve, poor fit]
Cc1cccc(C(=O)NNC(=O)/C=C/C(=O)O)c1	inactive
CC(C)CC1C(=O)N(Cc2cn(CCC3OCCO3)nn2)CCS(=O)(=O)N1Cc1ccc(-c2ccncc2)cc1 (stereo unspecified)	inactive
CC(=O)Nc1ccccc1C(=O)C(=O)Nc1ccc(C)c(F)c1	inconclusive: 6.31 µM [inhibitor, single point]
CC1CCN(c2cc(N(C)CCO)c([N+](=O)[O-])c3nonc23)CC1	inconclusive: 25.1 µM [inhibitor, single point]
CN(c1ccc(C(=O)Nc2cccnc2)cc1)S(=O)(=O)c1ccccc1	inactive
O=[N+]([O-])c1ccc2oc(/C=C/c3ccc(O)cc3)nc2c1	inactive
CCC(C)C(=O)N1c2ccccc2C(=C2SC(C(=O)OC)=C(C(=O)OC)S2)C(=S)C1(C)C (stereo unspecified)	inconclusive: 11.2 µM [inhibitor, partial curve, poor fit]
COc1ccc(NC(=O)CSc2nnc(-c3ccccc3C)n2N)cc1	inconclusive: 14.1 µM [inhibitor, single point]
Cc1ccc2nc(C3CCN(C(=O)NCc4ccccc4)CC3)[nH]c2c1	inconclusive: 20 µM [inhibitor, single point]
O=C1[C@H]2[C@@H](c3ccc(Cl)cc3)N3C(=O)N(c4cccc(F)c4)C(=O)[C@@]3(Cc3ccc(Cl)cc3)[C@H]2C(=O)N1C1CCCCC1	inactive
CN=C(Nc1ccc(Br)cc1)SC1CC(=O)N(c2ccc(OC)cc2)C1=O (stereo unspecified)	inconclusive: 35.5 µM [inhibitor, single point]
Cc1ccc(N(CC(=O)Nc2ccc(F)cc2F)S(=O)(=O)c2cccs2)cc1	inconclusive: 35.5 µM [inhibitor, single point]
CCc1ccc(N(CC(=O)NC2CCCC2)S(=O)(=O)c2c(C)noc2C)cc1	inconclusive: 35.5 µM [inhibitor, single point]
CCCOc1ccc(/C(CC)=N/NC(=O)C2(C)CC2(Br)Br)cc1 (stereo unspecified)	inconclusive: 3.16 µM [inhibitor, single point]

SMILES	Potency
O=C(CS(=O)(=O)c1cccc2nsnc12)NCc1ccccc1Cl	inactive
CCOC(=O)c1ccc(NC(=S)NCCc2ccccc2)cc1	inconclusive: 25.1 µM [inhibitor, single point]
CCOC(OCC)c1cc2ccccc2cn1	inconclusive: 5.62 µM [inhibitor, single point]
Cc1cccc(C)c1OCc1cc(C(=O)NC2CCC2)no1	inactive
COc1ccc(C(=O)NCCc2csc(-c3ccc(Cl)cc3)n2)cc1	inconclusive: 35.5 µM [inhibitor, single point]
Cn1cc(CCCC(=O)NCc2cccc(Br)c2)c2ccccc21	inconclusive: 35.5 µM [inhibitor, single point]
Cc1cc2c(cc1C)N1C(=O)c3cc4ccccc4cc3NC(=O)C1C(=O)N2 (stereo unspecified)	active: 12.6 µM
COc1ccc(-c2cccc(NS(=O)(=O)c3cc(C(F)(F)F)ccc3Cl)c2)nn1	inconclusive: 35.5 µM [inhibitor, single point]
Cc1[nH][nH]c(=O)c1C(c1cc2c(cc1Br)OCO2)c1c(C)[nH][nH]c1=O	inconclusive: 0.1 µM [inhibitor, full curve, poor fit]
COc1ccc(CCNC(=O)c2ccc3c(c2)N(Cc2ccccc2Cl)C(=O)c2ccccc2S3)cc1OC	inconclusive: 7.08 µM [inhibitor, partial curve]
CC(O)(c1cccc(F)c1)c1nc(-c2cccc(C#N)c2)cs1 (stereo unspecified)	inconclusive: 10 µM [inhibitor, partial curve, poor fit]
COc1ccc(F)cc1-c1cc(NC=O)c2ncc(-c3cc(OC)c(OC)c(OC)c3)n2c1	inconclusive: 0.112 µM [inhibitor, full curve, poor fit]
Nc1nnc(SCc2ccc(F)cc2Cl)s1	inconclusive: 25.1 µM [inhibitor, single point]
CN(C)c1ncc(S(=O)(=O)c2ccc(Cl)cc2)c(-c2ccc(Cl)cc2Cl)n1	inconclusive: 12.6 µM [inhibitor, partial curve, poor fit]
CC(=O)Nc1cccc(-c2ccnc3c2CC(C)(C(=O)NCCc2ccccc2)O3)c1 (stereo unspecified)	inconclusive: 25.1 µM [inhibitor, single point]
Cc1ccccc1Cn1nnc2sc3c(c2c1=O)CCCC3	inconclusive: 35.5 µM [inhibitor, single point]
Cc1cccc(NC(=S)N(CCCN2CCOCC2)Cc2ccco2)c1	inconclusive: 22.4 µM [inhibitor, single point]
CC(=O)Nc1cccc(O)c1	inactive
O=C(COC(=O)c1ccc(S(=O)(=O)N2CCCCC2)cc1)Nc1ccccc1Cl	inactive
Cc1cccc(/C=N/n2c(COc3ccccc3)n[nH]c2=S)c1	inactive
Oc1ccc(C[C@H]2CN([C@@H](Cc3ccc(O)cc3)CN3CCC[C@@H]3CN3C(=S)NC[C@@H]3Cc3ccccc3)C(=S)N2CCc2ccccc2)cc1	inconclusive: 15.8 µM [inhibitor, partial curve, poor fit]
O=C(NC1CCCCC1)c1ccc(Cn2c(SCc3ccccc3)nc3cccnc32)cc1	inconclusive: 3.55 µM [inhibitor, partial curve, poor fit]
